Data reported in US9714221B1 (priority 2016, dated 2017).

Tests used:
Experiment in all cases: cells
Conditions in all cases: Homo sapiens, read-out: proliferation MCF7 (WT) IC50 (nM)
[1] = system: MCF7 cells (breast tumor cells) WT
[2] = system: MCF7 cells expressing (and dependent) on mutant estrogen receptor Tyr 537 Ser
[3] = system: MCF7 cells expressing (and dependent) on mutant estrogen receptor Asp 538 Gly

Row | Structure (SMILES) | IC50 [1] [nM] | IC50 [2] [nM] | IC50 [3] [nM]
1 | CC1(C)Cc2cc(C3=C(c4ccc(O[C@H]5CCN(CCCF)C5)cc4)c4ccc(O)cc4CCC3)ccc2N1 [Example 70, 6-(2,2-dimethylindolin-5-yl)-5-[4-[(3S)-1-(3-fluoropropyl)pyrrolidin-3-yl]oxyphenyl]-8,9-dihydro-7H-benzo[7]annulen-2-ol] | 0.2 | 8 | 1
2 | [O-][n+]1ccc(C2=C(c3ccc(O[C@H]4CCN(CCCF)C4)cc3)c3ccc(O)cc3CCC2)cc1 [Example 189, 5-[4-[(3S)-1-(3-fluoropropyl)pyrrolidin-3-yl]oxyphenyl]-6-(1-oxidopyridin-1-ium-4-yl)-8,9-dihydro-7H-benzo[7]annulen-2-ol] | 12 |  | 
3 | Oc1ccc2c(c1)CCCC(c1ccc3nonc3c1)=C2c1ccc(O[C@H]2CCN(CCCF)C2)cc1 [Example 193, 6-(2,1,3-benzoxadiazol-5-yl)-5-[4-[(3S)-1-(3-fluoropropyl)pyrrolidin-3-yl]oxyphenyl]-8,9-dihydro-7H-benzo[7]annulen-2-ol] | 0.6 |  | 
4 | Oc1ccc2c(c1)CCCC(c1ccc3nsnc3c1)=C2c1ccc(O[C@H]2CCN(CCCF)C2)cc1 [Example 194, 6-(2,1,3-benzothiadiazol-5-yl)-5-[4-[(3S)-1-(3-fluoropropyl)pyrrolidin-3-yl]oxyphenyl]-8,9-dihydro-7H-benzo[7]annulen-2-ol] | 0.3 |  | 
5 | Oc1ccc2c(c1)CCCC(c1ccc3c(c1)OC(F)(F)C(F)(F)O3)=C2c1ccc(O[C@H]2CCN(CCCF)C2)cc1 [Example 196, 5-[4-[(3S)-1-(3-fluoropropyl)pyrrolidin-3-yl]oxyphenyl]-6-(2,2,3,3-tetrafluoro-1,4-benzodioxon-6-yl)-8,9-dihydro-7H-benzo[7]annulen-2-ol] | 1 |  | 
6 | Oc1ccc2c(c1)CCCC(c1ccc3sncc3c1)=C2c1ccc(O[C@H]2CCN(CCCF)C2)cc1 [Example 197, 6-(1,2-benzothiazol-5-yl)-5-[4-[(3S)-1-(3-fluoropropyl)pyrrolidin-3-yl]oxyphenyl]-8,9-dihydro-7H-benzo[7]annulen-2-ol] | 0.2 |  | 
7 | CC(F)(F)c1ccc(C2=C(c3ccc(O[C@H]4CCN(CCCF)C4)cc3)c3ccc(O)cc3CCC2)cc1 [Example 201, 6-[4-(1,1-difluoroethyl)phenyl]-5-[4-[(3S)-1-(3-fluoropropyl)pyrrolidin-3-yl]oxyphenyl]-8,9-dihydro-7H-benzo[7]annulen-2-ol] | 0.02 |  | 
8 | Oc1ccc2c(c1)CCCC(C1=CCOCC1)=C2c1ccc(O[C@H]2CCN(CCCF)C2)cc1 [Example 202, 6-(3,6-dihydro-2H-pyran-4-yl)-5-{4-[(S)-1-(3-fluoro-propyl)-pyrrolidin-3-yloxy]-phenyl}-8,9-dihydro-7H-benzocyclohepten-2-ol] | 0.3 |  | 
9 | Oc1ccc2c(c1)CCCC(C1CCOCC1)=C2c1ccc(O[C@H]2CCN(CCCF)C2)cc1 [Example 203, 5-[4-[(3S)-1-(3-fluoropropyl)pyrrolidin-3-yl]oxyphenyl]-6-tetrahydropyran-4-yl-8,9-dihydro-7H-benzo[7]annulen-2-ol] | 0.1 |  | 
10 | Oc1ccc2c(c1)CCCC(C1CCC(O)CC1)=C2c1ccc(O[C@H]2CCN(CCCF)C2)cc1 (stereo partly drawn) [Example 204, 5-[4-[(3S)-1-(3-fluoropropyl)pyrrolidin-3-yl]oxyphenyl]-6-(4-hydroxycyclohexyl)-8,9-dihydro-7H-benzo[7]annulen-2-ol] |  |  | 0.3
11 | Cn1cnc2ccc(C3=C(c4ccc(O[C@H]5CCN(CCCF)C5)cc4)c4ccc(O)cc4CCC3)cc21 [Example 205, 5-[4-[(3S)-1-(3-fluoropropyl)pyrrolidin-3-yl]oxyphenyl]-6-(3-methylbenzimidazol-5-yl)-8,9-dihydro-7H-benzo[7]annulen-2-ol] | 8 |  | 
12 | Oc1ccc2c(c1)CCCC(C1=CCC(F)(F)CC1)=C2c1ccc(O[C@H]2CCN(CCCF)C2)cc1 [Example 207, 6-(4,4-difluorocyclohexen-1-yl)-5-[4-[(3S)-1-(3-fluoropropyl)pyrrolidin-3-yl]oxyphenyl]-8,9-dihydro-7H-benzo[7]annulen-2-ol] | 0.3 |  | 
13 | Oc1ccc2c(c1)CCCC(C1CCC(F)(F)CC1)=C2c1ccc(O[C@H]2CCN(CCCF)C2)cc1 [Example 208, 6-(4,4-difluorocyclohexyl)-5-[4-[(3S)-1-(3-fluoropropyl)pyrrolidin-3-yl]oxyphenyl]-8,9-dihydro-7H-benzo[7]annulen-2-ol] | 0.1 |  | 
14 | O=C(O)c1ccc2c(c1)CCCC(c1ccccc1Cl)=C2c1ccc(O[C@H]2CCN(CCCF)C2)cc1 [Example 210, 6-(2-chlorophenyl)-5-[4-[(3S)-1-(3-fluoropropyl)pyrrolidin-3-yl]oxyphenyl]-8,9-dihydro-7H-benzo[7]annulene-2-carboxylic acid] | 0.5 |  | 
15 | O=C(O)c1ccc2c(c1F)CCCC(c1ccc(Cl)cc1Cl)=C2c1ccc(O[C@H]2CCN(CCCF)C2)cc1 [Example 211, 6-(2,4-dichlorophenyl)-1-fluoro-5-[4-[(3S)-1-(3-fluoropropyl)pyrrolidin-3-yl]oxyphenyl]-8,9-dihydro-7H-benzo[7]annulene-2-carboxylic acid] | 0.7 |  | 
16 | O=C(O)c1ccc2c(c1F)CCCC(c1ccc(Cl)cc1F)=C2c1ccc(O[C@H]2CCN(CCCF)C2)cc1 [Example 212, 6-(4-chloro-2-fluoro-phenyl)-1-fluoro-5-[4-[(3S)-1-(3-fluoropropyl)pyrrolidin-3-yl]oxyphenyl]-8,9-dihydro-7H-benzo[7]annulene-2-carboxylic acid] | 4 |  | 
17 | O=C(O)c1ccc2c(c1F)CCCC(c1ccc(F)cc1Cl)=C2c1ccc(O[C@H]2CCN(CCCF)C2)cc1 [Example 213, 6-(2-chloro-4-fluoro-phenyl)-1-fluoro-5-[4-[(3S)-1-(3-fluoropropyl)pyrrolidin-3-yl]oxyphenyl]-8,9-dihydro-7H-benzo[7]annulene-2-carboxylic acid] | 1 |  | 
18 | Oc1ccc2c(c1)CCCC(c1ccccc1)=C2c1ccc(O[C@H]2CCN(CCCF)C2)cc1 [Example 214, 9-(4-{[(3S)-1-(3-fluoropropyl)pyrrolidin-3-yl]oxy}phenyl]-8-phenyl-6,7-dihydro-5H-benzo[7]annulen-3-ol] | 0.1 |  | 
19 | Oc1ccc2c(c1)CCCC(c1ccc3[nH]ncc3c1)=C2c1ccc(O[C@H]2CCN(CCCF)C2)cc1 [Example 215, 5-[4-[(3S)-1-(3-fluoropropyl)pyrrolidin-3-yl]oxyphenyl]-6-(1H-indazol-5-yl)-8,9-dihydro-7H-benzo[7]annulen-2-ol] | 1 |  | 
20 | O=C(O)c1ccc2c(c1)CCCC(c1cccc(F)c1Cl)=C2c1ccc(O[C@H]2CCN(CCCF)C2)cc1 [Example 216, 6-(2-Chloro-3-fluoro-phenyl)-5-{4-[(S)-1-(3-fluoro-propyl)-pyrrolidin-3-yloxy]-phenyl}-8,9-dihydro-7H-benzocycloheptene-2-carboxylic acid] | 1 |  | 
21 | O=C(O)c1ccc2c(c1)CCCC(c1ccccc1)=C2c1ccc(O[C@H]2CCN(CCCF)C2)cc1 [Example 217, 5-{4-[(S)-1-(3-Fluoro-propyl)-pyrrolidin-3-yloxy]-phenyl}-6-phenyl-8,9-dihydro-7H-benzocycloheptene-2-carboxylic acid] | 0.3 |  | 
22 | O=C(O)c1ccc2c(c1)CCCC(c1ccc3ocnc3c1)=C2c1ccc(O[C@H]2CCN(CCCF)C2)cc1 [Example 218, 6-Benzooxazol-5-yl-5-{4-[(S)-1-(3-fluoro-propyl)-pyrrolidin-3-yloxy]-phenyl}-8,9-dihydro-7H-benzocycloheptene-2-carboxylic acid] | 1 |  | 
23 | CC(F)(F)c1ccc(C2=C(c3ccc(O[C@H]4CCN(CCCF)C4)cc3)c3ccc(C(=O)O)cc3CCC2)cc1 [Example 219, 6-[4-(1,1-Difluoro-ethyl)-phenyl]-5-{4-[(S)-1-(3-fluoro-propyl)-pyrrolidin-3-yloxy]-phenyl}-8,9-dihydro-7H-benzocycloheptene-2-carboxylic acid] | 1 | 36 | 9
